Reference: PubChem BioAssay AID1508623 (National Center for Advancing Translational Sciences (NCATS), 2021)
In all, about 48,000 compounds went through this assay and about 450 (0.94%) were called active. Another 19% or so got no clear call; they are omitted. Calls follow the shape of the dose curve; as a rule, active = well fitted inhibition curve with a large enough effect; inconclusive = small, poorly fitted or top-dose-only effect; inactive = no such curve, though single readings can be large or run the other way. The list shows a part of the results.

assay: Primary qHTS for Identification of Small Molecule Inhibitors of Huntingtin Promoter Activity; details: HEK293 HTT promoter firefly luciferase reporter (activity 0% = vehicle and -100% = no light), 24 h; series mostly up to 57.5 µM; activity change, negative = inhibition: at the top concentration; also: nearly all actives have a fitted effect of over 50% in size
In short: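 Quantitative HTS used concentration series of up to 57.5 uM final on HEK293 luciferase reporter cells, 24 h at 37 degrees C. Readout was Dual-Glo firefly luminescence.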

SMILES | activity change, negative = inhibition
O=C(c1ccc2c(c1)CCCC2)N1CCN(c2nc3ccc(F)cc3s2)CC1 | inactive: -12.6%
CCOc1ccc(CNC(=O)c2cc3c(s2)-c2ccccc2OC3)cc1 | inactive: -11.4%
COc1cc(NC(=O)NC(C)c2c(-n3cccc3)sc3c2CCN(C)C3)cc(OC)c1 (stereo unspecified) | inactive: -16.8%
COc1cccc(-n2c(SCC(=O)N3CCCc4ccccc43)nc3c([nH]c4ccccc43)c2=O)c1 | inactive: -22.1%
CCc1ccc(S(=O)(=O)NCc2nc3cccnc3n2Cc2ccccc2Cl)cc1 | inactive: -13.4%
COc1ccc(Cl)cc1NC(=O)Cn1c(=O)n(CCCC(=O)NCCc2ccc(OC)c(OC)c2)c(=O)c2ccccc21 | inactive: -17.8%
O=C(CCSCc1cccc(F)c1)NCc1ccccc1 | inactive: -5.21%
CCN1CCN(c2c(S(=O)(=O)c3ccc(Cl)cc3)cnc3ccccc23)CC1 | inactive: -16.7%
Cc1ccc(NC(=O)Cn2c(=O)n(CCCS(=O)(=O)C3CCCCC3)c(=O)c3ccccc32)cc1F | inactive: -13.5%
COc1ccc(C(=O)c2oc3ccccc3c2NC(=O)COc2ccc(C)cc2)cc1 | inactive: -3.71%
COc1ccc(S(=O)(=O)c2cc3cc(OC)ccc3oc2=O)cc1 | inactive: -3.65%
CCc1ccccc1NC(=O)N1CCc2cc(OC)c(OC)cc2C1CC(=O)OC (stereo unspecified) | inactive: -20.5%
Cn1c(=O)c2c(-c3ccccc3Cl)n(Cc3ccc(Cl)cc3)cc2n(C)c1=O | inactive: 0.0314%
Cc1cccc(N2CCN(C(=O)CCC(=O)NNc3nc4ccccc4c4nc(C)nn34)CC2C)c1 (stereo unspecified) | inactive: -17.1%
COc1cc(C2c3c(-c4c(C)cc(C)cc4O)n[nH]c3C(=O)N2CCCOC(C)C)cc(OC)c1OC (stereo unspecified) | inactive: -19.1%
CCN1CCN(c2cc(-c3ccc(F)cc3)c3c(n2)CCCCCC3)CC1 | inactive: 4.67% [at 25.2 µM]
CCc1ccccc1NC(=O)CN1C(=O)COc2ccc(S(=O)(=O)Nc3ccccc3)cc21 | inactive: -11.5%
C#CCN(C)CC1=Cc2ccccc2Oc2ccccc21 | inactive: -12%
Cc1ccc(N2CC(c3nnc(Cc4ccccc4Cl)o3)CC2=O)cc1 (stereo unspecified) | inactive: -16.7%
COc1ccccc1Cc1nc2ccccc2nc1SCC(=O)Nc1ccccc1C(F)(F)F | inactive: -7.25%
COc1ccc(-c2nc3c(C#N)c[nH]n3c2NC2CCCC2)cc1 | inactive: 5.89%
COc1ccc(S(=O)(=O)n2nc(-c3ccco3)nc2NCc2ccc(OC)c(OC)c2)cc1 | inactive: -16.1%
COc1ccccc1N1CCN(c2cc(C)nc3c(-c4ccc(Cl)cc4)c(C)nn23)CC1 | inactive: -22.8%
CN(C)c1ccc(CNC(=O)CCn2c(=O)c3cccn3c3ccc(F)cc32)cc1 | inactive: 2.02%

SMILES | activity change, negative = inhibition
COCCOC(=O)C1=C(C)N=C2SCCC(=O)N2C1c1ccc(OCc2ccccc2)c(OC)c1 (stereo unspecified) | inactive: -7.16%
COCCNC(=O)CCSc1nc(-c2ccc3c(c2)OCO3)cc(C(F)(F)F)n1 | inactive: -21.7%
CCc1nnc2c(NCc3cccc(OC)c3)nc3ccccc3n12 | inactive: -6.07%
CCOc1ccccc1C(=O)Nc1nnc(COC)s1 | inactive: -1.94%
CCN(CC)S(=O)(=O)c1ccc2c(c1)c(=O)c(C(=O)NCc1ccccc1OC)cn2C | inactive: 10.7%
Cn1c(=O)c2c(ncn2C)n(C)c1=O | inactive
Cc1cn(C)c(CC(=O)N2CCN(c3ccc(F)cc3)CC2)c1C(=O)O | inactive: -19.9%
O=C(NCc1ccc2c(c1)CCN2C(=O)c1ccccc1)c1ccc(Br)o1 | inactive: -14.6%
CCOC(=O)c1cc(OC(=O)c2cccc(Cl)c2)n(-c2ccccc2)n1 | inactive: -6.58%
CC[C@@H]1C(=O)N(C)c2cnc(Nc3ccc(C(=O)NC4CCN(C)CC4)cc3OC)nc2N1C1CCCC1 | inactive: -10.6%
CCC1CN(C(=O)N2CCC(C(=O)NCc3ccco3)CC2)c2cc(C)ccc2O1 (stereo unspecified) | inactive: -13.6%
CC(C)c1nc2ccc(C(=O)NCCCN3CCN(c4ccc(F)cc4)CC3)cc2o1 | inactive: 4.37%
COc1cccc(-n2c(-c3ccc(C)cc3)cc3c2CC(C)(C)CC3=O)c1 | inactive: -13.2%
Cc1cc(C)c2c(CC(=O)Nc3c(C(=O)c4ccc(F)cc4)oc4ccccc34)coc2c1 | inactive: 6.6%
Cc1ccc2c(c1)CC(C)N2S(=O)(=O)c1nnc(NC(=O)CC(C)C)s1 (stereo unspecified) | inactive: -23.8%
COc1ccc(OC)c(NC(=O)CCc2c(C)nc3c(c(C)nn3C(C)(C)C)c2C)c1 | inactive: -19.9%
Cc1c(NC(=O)c2ccc(Cl)cc2)cc(C(C)C)c(O)c1S(=O)(=O)c1ccccc1 | inactive: -8.45%
COc1ccccc1C(=O)Nc1ccc(OCc2cc(=O)n3cccc(C)c3n2)cc1 | inactive: -6.12%
Cc1cc(NC(=O)CSc2nc3c([nH]c4ccccc43)c(=O)n2-c2ccc(Cl)cc2)no1 | inactive: -11.6%
Cc1cc(=O)n(Cc2ccccc2Cl)c2c1c(C)nn2-c1ccccc1 | inactive: -18.8%
O=C(NCC1CCN(Cc2ccccc2Cl)CC1)c1cc2ccc3cccnc3c2[nH]1 | inactive: -7.82%
O=C(CC1Oc2ccccc2NC1=O)NCc1ccc(F)cc1 (stereo unspecified) | inactive: -5.77%
COc1ccc(CC(=O)Nc2nnc3n2CCS3)cc1 | inactive: 0.0678%
O=c1oc2ccc(F)cc2cc1-c1nc(-c2cccs2)no1 | inactive: 50%

SMILES | activity change, negative = inhibition
Cc1ccc(CSc2nc3ccsc3c(=O)n2CCC(C)C)cc1 | inactive: -3.48%
CCN1CCN(C(=O)c2ccc3c(c2)N(Cc2ccc(F)cc2)C(=O)c2ccccc2S3(=O)=O)CC1 | inactive: -14.6%
Cc1cccc(OCc2nnc(-c3ccccc3)o2)c1 | inactive: 50.6%
CCn1c2c(c(=O)n3ncc(C(=O)Nc4ccc(F)cc4Cl)c13)CN(Cc1ccc(OC)cc1)CC2 | inactive: -27.7%
Cc1ccc(-c2nc(-c3cc4cccc(OCc5cccc(F)c5)c4oc3=O)no2)cc1 | inactive: -11.2%
CCOc1ccc(-n2c(Cc3ccccc3)nnc2SCc2nc(-c3cccs3)no2)cc1 | inactive: -16.4%
COc1cccc(NC(=O)c2sc3nc(C)c(C(=O)Nc4ccc(C)cc4C)c(-c4cccs4)c3c2N)c1 | inactive: -12.6%
Cc1cc(C)cc(NC(=O)C2CCN(S(=O)(=O)c3c(C)noc3/C=C/c3ccco3)CC2)c1 | inactive: -9.18%
Cc1ccn2c(Nc3c(C)cccc3C)c(-c3ccc(Cl)s3)nc2c1 | inactive: -18%
Cc1ccc2c(c1)c1c(c(=O)n(-c3ccccc3C)c(=O)n1Cc1cccc(F)c1)n2C | inactive: -19.7%
Cc1ccc(Cl)cc1NC(=O)C(NS(=O)(=O)c1ccc2c(c1)CCC(=O)N2)c1ccccc1 (stereo unspecified) | inactive: -15.5%
CCc1ccc(NCc2cc3cc(OC)c(OC)cc3n(CC(=O)Nc3ccc(F)cc3)c2=O)cc1 | inactive: -20%
Cc1cccc(NC(=O)CC2C(=O)OCCN2Cc2ccccc2)c1 (stereo unspecified) | inactive: -36.8%
CC1=C(c2ccc(F)cc2)S(=O)(=O)NC1=NCc1ccccc1Cl | inactive: -28.6%
CC(C)(C)C(=O)Nc1ccc2nc(SCc3ccccc3)sc2c1 | inactive: -15.7%
COc1ccc2cc(CNc3ccccc3)c(=O)n(CC(=O)Nc3ccc(C(C)=O)cc3)c2c1 | inactive: -37.4%
Cc1ccccc1C(=O)NC(=O)Nc1ccc(-n2nc(C(F)(F)F)cc2C(F)(F)F)cc1 | inactive: -6.36%
COc1cccc(CNC(=O)CCn2c(=O)c3cccn3c3cccnc32)c1 | inactive: 5.38%
CCC(=O)N1CCc2cc(S(=O)(=O)NC(Cc3ccccc3)C(=O)NCc3cccc(OC)c3)ccc21 (stereo unspecified) | inactive: -18.8%
COc1ccc(-c2cn3nc(N4CCCC(C(=O)NCCCOC(C)C)C4)sc3n2)cc1 (stereo unspecified) | inactive: -19.5%
CCCN(CCC)c1cc(C)nc2nc(-c3ccc(Cl)cc3)nn12 | inactive: -3.65%
Cc1ccc(C(=O)CSc2nc(-c3ccccc3)nc3c2CCCC3)cc1C | inactive: -8.62%
CC1=C(C(=O)Nc2ccc(C)cc2C)C(c2cccs2)n2nc(SCc3ccc(Cl)cc3)nc2N1 (stereo unspecified) | inactive: 11.1%
COc1ccc(-c2csc3ncnc(Nc4cccc(F)c4)c23)cc1 | inactive: -16.2%

SMILES | activity change, negative = inhibition
CC(=O)c1ccc(NC(=O)CC2Sc3ccccc3NC2=O)cc1 (stereo unspecified) | inactive: -7.57%
Cc1cc(Oc2nc3ccccn3c(=O)c2/C=C(\C#N)c2nc3ccccc3s2)ccc1Cl | inactive: -0.533%
Cc1ccc(CSc2nc3cccnc3n2Cc2ccc(C(=O)NCc3cccs3)cc2)cc1 | inactive: -10.4%
Cc1nc2nc(NC(=O)C(C)C)[nH]n2c(=O)c1Cc1ccccc1 | inactive: 0.51%
Cc1ccc(NC(=O)C2CCN(C(=O)c3cnn(-c4ccccc4)c3-n3cccc3)CC2)cc1Cl | inactive: -4.23%
COc1cc(Cl)c(C)cc1NC(=O)CCn1cnc2onc(-c3ccc(F)cc3)c2c1=O | inactive: -2.23%
CC(CNC(=O)Cn1c(-c2cccs2)cc2cc(Cl)ccc21)c1ccccc1 (stereo unspecified) | inactive: -15.4%
COCC(C)NS(=O)(=O)c1ccc(N2CCCCS2(=O)=O)cc1 (stereo unspecified) | inactive: -35.7%
CCOC(=O)c1ccc(NC(=O)c2sc3nc4n(c(=O)c3c2C)CCC4)cc1 | inactive: -16.6%
CCN1C(C(=O)c2ccccc2)=C(NC(=O)c2ccc(Cl)cc2)c2ccccc2S1(=O)=O | inactive: -28.5%
Cc1ccc2c(CC(=O)Nc3c(C(=O)c4ccc(F)cc4)oc4ccccc34)coc2c1C | inactive: 6.69%
CC(C)c1ccc(NC(=O)C(Cc2ccccc2)n2cccc2)cc1 (stereo unspecified) | inactive: -19.8%
Cc1ccc(C)c(S(=O)(=O)c2cn(Cc3ccccc3)c3cc(N4CCCC4)c(F)cc3c2=O)c1 | inactive: -29.4%
CCOc1ccc(NC(=O)Cn2c(=O)n(CC(=O)NCCc3ccccc3)c(=O)c3sccc32)cc1 | inactive: -9.9%
Cc1ccc(-n2ccn(CC(=O)c3ccc(F)cc3)c(=O)c2=O)cc1C | inactive: -13.1%
Cc1ccc(-n2[nH]c(C)c(N=Nc3cccc(-c4cccc(C(=O)O)c4)c3O)c2=O)cc1C | inactive: 1.15%
CCOC(=O)c1ccc(N2C(=O)c3[nH]nc(-c4ccccc4)c3C2c2ccc(C(C)C)cc2)cc1 (stereo unspecified) | inactive: -20.2%
COc1ccc2c(CNCCc3ccco3)c(C(=O)O)n(Cc3ccc(F)cc3)c2c1 | inactive: -21.4%
CC(=O)Nc1nonc1-c1nnc(SCC(=O)Nc2c(C)cccc2C)n1-c1ccccc1 | inactive: -13.9%
CCn1cc(C(=O)NCc2ccc(Cl)cc2)c(=O)c2cc(S(=O)(=O)N3CCc4ccccc4C3)ccc21 | inactive: 3.02%
COc1ccc(C)cc1NC1(c2ccccc2)C(=O)c2ccccc2C1=O | inactive: -9.12%
COc1ccc(OC)c(N(C)S(=O)(=O)c2ccc3c(c2)NC(=O)CC(=O)N3)c1 | inactive: -4.11%
CN(C)c1ccc(NC(=O)CC(NCc2cccnc2)C(=O)O)cc1 (stereo unspecified) | inactive: -7.32%
Cc1ccccc1NC(=O)c1sc2nc3n(c(=O)c2c1C)N=C(c1ccccc1)CS3 | inactive: -10.3%
